The subject of assay [1] is cabbage Alternaria sooty spot fungi (Alternaia brassicicola). The experiment in a line: Test Example C: cabbage Alternaria sooty spot, spray treatment of cabbage plants. The settings on record: cabbage Alternaria sooty spot, spray treatment of cabbage plants. The class given is in vivo. An excerpt: [Test Example C] Cabbage Alternaria Sooty Spot
Test plants (cabbage variety: Shikidori) were cultivated until the cotyledons extended after the sowing of seeds.
<Control Value> Control value=100{1−(n/3)}

Assay [2] has as its system barley powdery mildew fungi (Blumeria graminis f. sp. hordei). Briefly: Test Example D: barley powdery mildew, spray treatment of barley plants. The settings on record: barley powdery mildew, spray treatment of barley plants.
Assay [3] concerns gray mold fungi (Botrytis cinerea). The experiment in a line: Test Example B: tomato gray mold, spray treatment of tomato plants. The settings on record: tomato gray mold, spray treatment of tomato plants.
For assay [4], the system named is grape downy mildew fungus (Plasmopara viticola). Briefly: Test Example G: grape downy mildew, spray treatment of grape plants. The settings on record: grape downy mildew, 250 ppm spray (2.5 ml/pot), 7 to 10 days after inoculation.
The test system of assay [5] is wheat brown rust fungi (Puccinia recondita). The experiment in a line: Test Example E: wheat brown rust, spray treatment of wheat plants. It is filed as in vivo. The settings on record: wheat brown rust, spray treatment of wheat plants.

Regarding `COc1cc(F)c(-c2c(Cl)c(=O)c(Br)cn2CC(C)(C)C)c(F)c1` [Compound 215], the “Test C control value” in assay [1] is reported as “H (H shows the control value of more than 50%)”. Besides, the “Test D control value” in assay [2] is “L (L shows the control value of 50% or less)”. The “Test B control value” in assay [3] is given as “H (H shows the control value of more than 50%)”. Besides, in assay [4], the “Test G control value” is “L (L shows the control value of 50% or less)”. Moreover, the “Test E control value” in assay [5] is “H (H shows the control value of more than 50%)”.

For the compound `Cc1ccccc1-n1cc(C)c(=S)c(C)c1-c1c(F)cc(F)cc1F` [Compound 216], the “Test C control value” in assay [1] is “H (H shows the control value of more than 50%)”. The “Test D control value” in assay [2] was “H (H shows the control value of more than 50%)”. Also, the “Test B control value” in assay [3] is “H (H shows the control value of more than 50%)”. In addition, the “Test G control value” in assay [4] was “H (H shows the control value of more than 50%)”. Further, in assay [5], the “Test E control value” is on record as “H (H shows the control value of more than 50%)”.

Turning to `COc1ccc(C)c(-n2cc(Br)c(=O)c(Cl)c2-c2c(F)cc(F)cc2F)c1` [Compound 217, 5-bromo-3-chloro-1-(5-methoxy-2-methylphenyl)-2-(2,4,6-trifluorophenyl)pyridin-4(1H)-one], the “Test C control value” in assay [1] was “H (H shows the control value of more than 50%)”. Also, the “Test D control value” in assay [2] is reported as “H (H shows the control value of more than 50%)”. Besides, the “Test B control value” in assay [3] was “H (H shows the control value of more than 50%)”. Also, in assay [4], the “Test G control value” was “H (H shows the control value of more than 50%)”. In assay [5], the “Test E control value” was “H (H shows the control value of more than 50%)”.

Turning to `COc1ccc(C)c(-n2cc(Br)c(=O)c(Br)c2-c2c(F)cc(F)cc2F)c1` [Compound 218], the “Test C control value” in assay [1] is on record as “H (H shows the control value of more than 50%)”. In addition, the “Test D control value” in assay [2] is “H (H shows the control value of more than 50%)”. Also, the “Test B control value” in assay [3] was “H (H shows the control value of more than 50%)”. Further, the “Test G control value” in assay [4] is recorded as “H (H shows the control value of more than 50%)”. Besides, the “Test E control value” in assay [5] is “H (H shows the control value of more than 50%)”.

For the compound `CCc1c(-c2c(F)cc(F)cc2F)n(CC(C)C)cc(Br)c1=O` [Compound 220], in assay [1], the “Test C control value” is listed as “H (H shows the control value of more than 50%)”. Besides, the “Test D control value” in assay [2] is reported as “H (H shows the control value of more than 50%)”. The “Test B control value” in assay [3] is listed as “H (H shows the control value of more than 50%)”. Besides, the “Test G control value” in assay [4] is “H (H shows the control value of more than 50%)”. Also, the “Test E control value” in assay [5] was “H (H shows the control value of more than 50%)”.

Take `CCCCn1cc(Cl)c(=O)c(Cl)c1-c1c(F)cc(F)cc1F` [Compound 221]: the “Test C control value” in assay [1] is reported as “H (H shows the control value of more than 50%)”. The “Test D control value” in assay [2] was “L (L shows the control value of 50% or less)”. For the same compound, in assay [3], the “Test B control value” was “H (H shows the control value of more than 50%)”. Further, the “Test G control value” in assay [4] is “H (H shows the control value of more than 50%)”. Besides, the “Test E control value” in assay [5] is listed as “H (H shows the control value of more than 50%)”.

In the case of `CCCCn1cc(Cl)c(=O)c(Br)c1-c1c(F)cc(F)cc1F` [Compound 222], in assay [1], the “Test C control value” is recorded as “H (H shows the control value of more than 50%)”. The “Test D control value” in assay [2] is listed as “L (L shows the control value of 50% or less)”. Moreover, the “Test B control value” in assay [3] is recorded as “H (H shows the control value of more than 50%)”. The “Test G control value” in assay [4] is recorded as “H (H shows the control value of more than 50%)”. Further, the “Test E control value” in assay [5] is “H (H shows the control value of more than 50%)”.

On to `CCc1c(-c2c(F)cc(F)cc2F)n(CC(C)C)cc(Cl)c1=O` [Compound 224], for which the “Test C control value” in assay [1] is on record as “H (H shows the control value of more than 50%)”. The “Test D control value” in assay [2] is “H (H shows the control value of more than 50%)”. Moreover, in assay [3], the “Test B control value” was “H (H shows the control value of more than 50%)”. The “Test G control value” in assay [4] is “L (L shows the control value of 50% or less)”. Also, in assay [5], the “Test E control value” was “H (H shows the control value of more than 50%)”.

For `COc1cc(F)c(-c2c(C)c(=S)c(C)cn2-c2ccccc2C)c(F)c1` [Compound 225], the “Test C control value” in assay [1] was “H (H shows the control value of more than 50%)”. Further, in assay [2], the “Test D control value” is recorded as “L (L shows the control value of 50% or less)”. Further, in assay [3], the “Test B control value” is reported as “H (H shows the control value of more than 50%)”. Also, in assay [4], the “Test G control value” was “L (L shows the control value of 50% or less)”. Further, the “Test E control value” in assay [5] is “L (L shows the control value of 50% or less)”.

As for `Cc1ccccc1-n1cc(C)c(=O)c(C)c1-c1ccc(F)cc1` [Compound 226], the “Test C control value” in assay [1] was “H (H shows the control value of more than 50%)”. In addition, the “Test D control value” in assay [2] is reported as “L (L shows the control value of 50% or less)”. In addition, the “Test B control value” in assay [3] was “H (H shows the control value of more than 50%)”. For the same compound, the “Test G control value” in assay [4] was “L (L shows the control value of 50% or less)”. Moreover, in assay [5], the “Test E control value” is listed as “H (H shows the control value of more than 50%)”.

In the case of `COc1ccc(C)c(-n2cc(Cl)c(=O)c(Br)c2-c2c(F)cc(F)cc2F)c1` [Compound 228], the “Test C control value” in assay [1] is listed as “H (H shows the control value of more than 50%)”. In addition, in assay [2], the “Test D control value” is “H (H shows the control value of more than 50%)”. The “Test B control value” in assay [3] is “H (H shows the control value of more than 50%)”. For the same compound, the “Test G control value” in assay [4] is “H (H shows the control value of more than 50%)”. Also, in assay [5], the “Test E control value” is “H (H shows the control value of more than 50%)”.

For `COc1ccc(C)c(-n2cc(Cl)c(=O)c(Cl)c2-c2c(F)cc(F)cc2F)c1` [Compound 229], in assay [1], the “Test C control value” is “H (H shows the control value of more than 50%)”. The “Test D control value” in assay [2] is recorded as “H (H shows the control value of more than 50%)”. Further, the “Test B control value” in assay [3] is “H (H shows the control value of more than 50%)”. For the same compound, the “Test G control value” in assay [4] is “H (H shows the control value of more than 50%)”. Moreover, the “Test E control value” in assay [5] was “H (H shows the control value of more than 50%)”.

Take `Cc1ccc(Cl)cc1-n1cc(Br)c(=O)c(Cl)c1-c1c(F)cc(F)cc1F` [Compound 230]: the “Test C control value” in assay [1] is reported as “H (H shows the control value of more than 50%)”. In addition, the “Test D control value” in assay [2] was “L (L shows the control value of 50% or less)”. For the same compound, the “Test B control value” in assay [3] is recorded as “H (H shows the control value of more than 50%)”. Further, the “Test G control value” in assay [4] was “L (L shows the control value of 50% or less)”. In addition, the “Test E control value” in assay [5] is on record as “H (H shows the control value of more than 50%)”.

With `CCc1c(-c2c(F)cc(F)cc2F)n(CC(C)C)cc(C)c1=O` [Compound 231], the “Test C control value” in assay [1] is “H (H shows the control value of more than 50%)”. Moreover, the “Test D control value” in assay [2] is reported as “H (H shows the control value of more than 50%)”. In assay [3], the “Test B control value” is reported as “H (H shows the control value of more than 50%)”. Besides, the “Test G control value” in assay [4] is recorded as “L (L shows the control value of 50% or less)”. In assay [5], the “Test E control value” is listed as “H (H shows the control value of more than 50%)”.

`CCc1c(-c2c(F)cc(OC)cc2F)n(CC(C)C)cc(C)c1=O` [Compound 232]: in assay [1], the “Test C control value” is recorded as “H (H shows the control value of more than 50%)”. Further, the “Test D control value” in assay [2] is recorded as “H (H shows the control value of more than 50%)”. Also, the “Test B control value” in assay [3] was “H (H shows the control value of more than 50%)”. Also, in assay [4], the “Test G control value” was “L (L shows the control value of 50% or less)”. The “Test E control value” in assay [5] is recorded as “H (H shows the control value of more than 50%)”.

As to `CCCCn1cc(Br)c(=O)c(Cl)c1-c1c(F)cc(F)cc1F` [Compound 233], in assay [1], the “Test C control value” is reported as “H (H shows the control value of more than 50%)”. Further, the “Test D control value” in assay [2] was “L (L shows the control value of 50% or less)”. For the same compound, in assay [3], the “Test B control value” was “H (H shows the control value of more than 50%)”. Moreover, the “Test G control value” in assay [4] was “L (L shows the control value of 50% or less)”. In assay [5], the “Test E control value” is reported as “H (H shows the control value of more than 50%)”.

Consider `CCCCn1cc(Br)c(=O)c(Br)c1-c1c(F)cc(F)cc1F` [Compound 234], for which the “Test C control value” in assay [1] is recorded as “H (H shows the control value of more than 50%)”. In assay [2], the “Test D control value” is “L (L shows the control value of 50% or less)”. In addition, the “Test B control value” in assay [3] is “H (H shows the control value of more than 50%)”. In addition, the “Test G control value” in assay [4] is “L (L shows the control value of 50% or less)”. In addition, the “Test E control value” in assay [5] is recorded as “H (H shows the control value of more than 50%)”.

`Cc1ccccc1-n1cc(Br)c(=O)c(Cl)c1-c1ccc(F)cc1` [Compound 235]: the “Test C control value” in assay [1] is “H (H shows the control value of more than 50%)”. The “Test D control value” in assay [2] is “L (L shows the control value of 50% or less)”. Moreover, the “Test B control value” in assay [3] is listed as “H (H shows the control value of more than 50%)”. Moreover, the “Test G control value” in assay [4] is on record as “H (H shows the control value of more than 50%)”. Also, in assay [5], the “Test E control value” is listed as “H (H shows the control value of more than 50%)”.

Take `Cc1ccccc1-n1cc(Br)c(=O)c(Br)c1-c1ccc(F)cc1` [Compound 236]: in assay [1], the “Test C control value” is given as “H (H shows the control value of more than 50%)”. Also, in assay [2], the “Test D control value” was “L (L shows the control value of 50% or less)”. In addition, the “Test B control value” in assay [3] is on record as “H (H shows the control value of more than 50%)”. Moreover, the “Test G control value” in assay [4] is reported as “L (L shows the control value of 50% or less)”. In addition, the “Test E control value” in assay [5] is “H (H shows the control value of more than 50%)”.

(Values after patent publication US11000038B2, “Pyridone compounds and agricultural and horticultural fungicides containing the same as active ingredients” (priority 2017, dated 2021).)
